Experimental data published in PubChem BioAssay AID662 (National Center for Advancing Translational Sciences (NCATS), 2007).
Among all 71,000 compounds or so, about 1,800 (2.5%) were called active. Inconclusive means that the source gave no clear call. Such entries were picked first, then a sample of the others. The call rests on the fitted dose curve; in most records, active means well fitted activation curve with a large enough effect in the signal ratio, with a control signal flat (not every such curve was filed as active); inconclusive means small, poorly fitted or top-dose-only effect, or effect the other way, or a change in a side signal; inactive means flat fitted curve, though single readings scatter; the % refers to the signal ratio. Potencies beside an inconclusive call are fits to weak or partial responses and may not hold up.
Potency means the concentration at half of the fitted maximal effect; tags describe the fitted curve by direction and shape.

Assay: Cell signaling CRE-BLA (Fsk stim); on activity change, negative = inhibition: % of control where 0% means no effect
Conditions: CHO CRE-bla reporter (cAMP response element driving beta-lactamase), forskolin EC10, beta-lactamase ratio; activity change, negative = inhibition: at 38.2 µM (top of the series) unless noted
How it was run: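 Titrated compounds plus EC10 NKH 477 on CHO CRE-bla cells, 3 h, 37 °C. CCF4, 2 h RT. Ratio 460/530 nm → AC50.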
With `CCOc1ccc(-c2nnc(-c3cccnc3)o2)cc1OCC` the Potency was inconclusive: 7.94 µM [rising, partial curve].
For `NC(=O)CNC(=O)C1CCCc2c1[nH]c1ccc(Cl)cc21` (stereo not given), the activity change, negative = inhibition was inconclusive: -8.55%.
With `CCSc1nnc(NC(=O)CSc2nnc(Cc3cccn3C)n2CCc2ccccc2)s1` the “activity change, negative = inhibition” value was inactive: -6.71%.
In the case of `CC1Cc2ccccc2N1C(=O)CN1C(=O)CN(C)C(=O)c2ccccc21` (stereo not given), the “activity change, negative = inhibition” value is reported as inactive: -3.8%.
For `Cc1noc(C)c1COC(=O)c1cc(C)n(-c2ccccc2)c1C`, the Potency was inconclusive: 15.8 µM [rising, single point].
For `O=C(Nc1cccc(Cl)c1)N1CCN(C/C=C/c2ccccc2)CC1`, the “activity change, negative = inhibition” value was inactive: -13.2%.
For `COc1ccc(C)cc1-n1nnnc1SCc1nc2ccccc2s1`, the activity change, negative = inhibition was inconclusive: 16.3%.
For `Fc1ccc(Br)cc1C1C=C(c2ccc(Br)s2)Nc2ncnn21` (stereo not given), the Potency was inconclusive: 12.6 µM [falling, single point].
In the case of `O=C(NCCc1c[nH]c2ccccc12)c1ccc(S(=O)(=O)NCc2ccco2)cc1`, the activity change, negative = inhibition is reported as inconclusive: -29.3%.
For `COc1ccc(OC)c(C(=O)CC2OC(=O)c3ccccc32)c1` (stereo not given), the activity change, negative = inhibition was inconclusive: -22.2%.
For `CCN(CCNC(=O)C1CCN(Cc2nc(-c3ccc(Cl)cc3)oc2C)CC1)c1ccccc1`, the Potency was inconclusive: 7.94 µM [falling, partial curve].
In the case of `O=C(c1ccccc1-c1nc2ccccc2[nH]1)N1CCCCC1`, the “activity change, negative = inhibition” value is reported as inactive: -9.41%.
With `CC(CCc1ccco1)NC(=O)CSc1cc(=O)n(C)c2ccccc12` (stereo not given) the “activity change, negative = inhibition” value was inactive: -1.34%.
With `Cn1cnc2c1c(=O)n(Cc1c(Cl)cccc1Cl)c(=O)n2C` the Potency was inconclusive: 25.1 µM [rising, single point].
For `Cc1cccc(N2CCN(C(=O)COc3cc(=O)n(C)c4ccccc34)CC2C)c1` (stereo not given), the “activity change, negative = inhibition” value was inactive: 13.4%.
With `O=c1c2cc3c(cc2[nH]c(=S)n1Cc1ccco1)OCO3` the activity change, negative = inhibition was inconclusive: -16.2%.
In the case of `CCC(=O)N1c2ccc(S(=O)(=O)CCC(=O)NC3CCCC3)cc2CC1C` (stereo not given), the activity change, negative = inhibition is reported as inconclusive: -4.37%.
With `c1ccc(-c2cc3c(N4CCOCC4)ncnc3s2)cc1` the “activity change, negative = inhibition” value was inactive: -3.31%.
With `O=C(Nc1ccc2nc(-c3cccs3)c(-c3cccs3)nc2c1)N1CCOCC1` the Potency was active: 10 µM.
For `CC1(C)CC2(CC(C)(C)NC(=O)N2)NC(=O)N1`, the “activity change, negative = inhibition” value was inactive: 4.7%.
With `Oc1c(/C=N/c2ncn[nH]2)ccc2ccccc12` the “activity change, negative = inhibition” value was inactive: -14.1%.
For `O=C(NC1CCCC1)C1CC1c1ccccc1` (stereo not given), the “activity change, negative = inhibition” value was inactive: 2.73%.
With `COc1ccccc1-n1c(CNC(=O)c2ccco2)nnc1SCC(=O)Nc1cc(C)ccc1C` the activity change, negative = inhibition was inconclusive: -2.07%.
For `COc1cccc(/C=N/n2cnnc2)c1OCc1ccccc1`, the “activity change, negative = inhibition” value was inactive: 3.73%.
In the case of `CCOC(=O)N1CCC(NC(=O)Cn2cccc2C(=O)c2ccccc2C)CC1`, the “activity change, negative = inhibition” value is reported as inactive: -9.47%.
For `[O-][N+](=Nc1ccccc1)c1ccccc1`, the “activity change, negative = inhibition” value was inactive: -9.71%.
In the case of `Cc1cc(C)c2nc(SCC#N)cc(C)c2c1`, the Potency is reported as inconclusive: 7.94 µM [rising, partial curve].
For `COc1ccc(N2CCN(c3nc4c(c(=O)[nH]c(=O)n4C)n3Cc3ccccc3Cl)CC2)cc1`, the activity change, negative = inhibition was inconclusive: 22.1%.
With `CC(=O)N1CCC2(CC1)CN(C(c1ccccc1)c1ccccc1)C2` the “activity change, negative = inhibition” value was inactive: 0.493%.
With `CC(C)C[C@@H](N)C(=O)Nc1ccc2ccccc2c1` the activity change, negative = inhibition was inactive: -9.43% [at 7.6 µM].
With `CC(C)CC(OC(=O)c1cccs1)C(=O)NCC1CCCO1` (stereo not given) the “activity change, negative = inhibition” value was inactive: -0.802%.
In the case of `CCCN(CCC)c1nc(C)cc(C(C#N)c2nc3ccccc3o2)n1` (stereo not given), the Potency is reported as active: 1.58 µM.
In the case of `COc1cccc(C(=O)Cn2c(=O)n(CC3CCCO3)c(=O)c3ccccc32)c1` (stereo not given), the “activity change, negative = inhibition” value is reported as inactive: 4.47%.
In the case of `C1CCCC1`, the “activity change, negative = inhibition” value is reported as inactive: -8.01%.
In the case of `c1cc(CNc2ccc3c(c2)OCO3)ccn1`, the “activity change, negative = inhibition” value is reported as inactive: -6.74%.
For `O=C(c1csc2c1CCCC2)N1CCN(c2ncccn2)CC1`, the “activity change, negative = inhibition” value was inactive: -0.163%.
In the case of `COC(=O)c1ccccc1NC(=O)c1ccc(-c2ccccc2F)o1`, the “activity change, negative = inhibition” value is reported as inactive: 4.65%.
For `CCOC(=O)C1CCN(S(=O)(=O)c2cccc(-c3cn4cccnc4n3)c2)CC1`, the activity change, negative = inhibition was inconclusive: 2.02%.
In the case of `O=C1Nc2ccccc2C12Nc1ccccc1-c1nc3ccccc3n12` (stereo not given), the “activity change, negative = inhibition” value is reported as inactive: -16.6%.
For `Oc1ccc(Cc2nccc3cc(O)c(O)cc23)cc1O`, the activity change, negative = inhibition was inconclusive: 27.4% [at 7.6 µM].
With `O=C(c1cc2c(s1)-c1ccccc1OC2)N1CCN(c2ccccn2)CC1` the Potency was inconclusive: 10 µM [rising, partial curve].
In the case of `CC1CCCCN1S(=O)(=O)c1ccc(S(=O)(=O)N2CCN(c3ccc(F)cc3)CC2)cc1` (stereo not given), the “activity change, negative = inhibition” value is reported as inactive: 1.54%.
With `O=C(c1ccc(F)cc1)C(CN1CCOCC1)c1ccccc1` (stereo not given) the activity change, negative = inhibition was inconclusive: -20%.
In the case of `C=CC(=O)OCCOCCOCCOCCOC(=O)C=C`, the Potency is reported as inconclusive: 7.94 µM [falling, full curve, poor fit] and the activity change, negative = inhibition is reported as inconclusive: -25.2%.
With `COc1ccc(/C(CC2(O)C(=O)Nc3ccccc32)=N\O)cc1` (stereo not given) the activity change, negative = inhibition was inconclusive: -13%.
With `COc1ccccc1CN1CC[C@@]2(CCCN(C(=O)c3c(C)noc3C)C2)C1` the “activity change, negative = inhibition” value was inactive: -2.26%.
For `CN(C)c1nc2ccc(OCCN3CCCCC3)cc2s1`, the “activity change, negative = inhibition” value was inactive: 3.02%.
With `COc1ccc(CN(Cc2nc3ccccc3c(=O)[nH]2)C(=O)NC2CCCCC2)cc1` the Potency was inconclusive: 5.01 µM [rising, partial curve].
With `Cc1nnc(NC(=O)CSc2nnc(Cc3ccccc3)n2Cc2ccccc2)s1` the Potency was inconclusive: 10 µM [rising, partial curve].
With `COc1cc(NC(=O)CSc2nccc(C)n2)c(C(=O)O)cc1OC` the activity change, negative = inhibition was inconclusive: -25.3%.
In the case of `Cc1ccc(-c2nc(C3CCCN(S(=O)(=O)c4ccc(C(F)(F)F)cc4)C3)no2)cc1` (stereo not given), the “activity change, negative = inhibition” value is reported as inactive: 10.4%.
For `CCOC(=O)c1c(-c2ccsc2)csc1N`, the “activity change, negative = inhibition” value was inactive: 0.513%.
For `O=c1c(-c2ccc(Cl)cc2)nc2cnc(Nc3ccccc3)nc2n1C1CC1`, the Potency was inconclusive: 3.98 µM [rising, partial curve].
For `O=C(O)c1cc(=O)[nH]c(=O)[nH]1`, the “activity change, negative = inhibition” value was inactive: 3.77%.
With `N=c1nc(-c2ccccc2)ccn1O` the activity change, negative = inhibition was inconclusive: -25.9%.
In the case of `CC1(C)CC(=O)C2=C(C1)NC(SCC(=O)Nc1ccccc1)=C(C#N)C21CCCCC1`, the “activity change, negative = inhibition” value is reported as inactive: 11%.
With `CCC(CC)C(=O)Nc1cc(C(=O)OC)cc(C(=O)OC)c1` the activity change, negative = inhibition was inconclusive: 25.6%.
For `O=C1C=C(N2CCN(c3ccccn3)CC2)C(=O)c2c(O)ccc(O)c21`, the Potency was active: 3.16 µM.
In the case of `CCOc1ccc(-c2noc(-c3ccncc3)n2)cc1OCC`, the Potency is reported as active: 20 µM.
